Compound in this assay: NC1(c2ccc(-c3nc4ccn5c(=O)[nH]nc5c4cc3-c3ccccc3)cc2)CCC1 [MK-2206]
The assay can be described thus: Viability of human cancer cell lines after 72 h of drug (GDSC screen). How it is done:
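Human cancer cell lines in 384-well plates, medium with 10% serum, drug for 72 h over a 256-fold dose range (nine 2-fold or five 4-fold steps up to the top dose). Adherent lines were fixed and stained with the nucleic acid dye Syto60, suspension lines read with resazurin; signal relative to control wells, capped at 0 and 100%. One two-parameter sigmoid per drug and line, fitted in a mixed model over all curves with the slope shared within a line.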

Lines with a small IC50 respond at low doses; a limit (>, <) means that the fit lies beyond the doses tested. AUC is the area under the same curve over the 256-fold range up to the top dose, as a fraction; values near 1 show little effect.

Consider “OCI-AML3 (acute myeloid leukaemia, suspension, top dose 4 µM)”, for which the AUC is 0.934 and the IC50 (commonly the concentration that inhibits the measured activity by half) is above 4000 nM.
As for “OCI-AML5 (acute myeloid leukaemia, suspension, top dose 4 µM)”, the AUC worked out at 0.934 and the IC50 was above 4000 nM.
As for “OCI-LY7 (B-cell lymphoma, suspension, top dose 4 µM)”, the AUC came out at 0.295 and the concentration for half-maximal inhibition (IC50) turned out to be 80 nM.
For “OCI-LY-19 (B-cell lymphoma, suspension, top dose 4 µM)” the same measures were 0.916 and above 4000 nM.
In the case of “OCI-M1 (acute myeloid leukaemia, suspension, top dose 4 µM)”, the AUC worked out at 0.991 and the IC50 is above 4000 nM.
As for “OCUB-M (breast, adherent, top dose 4 µM)”, the AUC turned out to be 0.691 and the IC50 was determined as 787 nM.
In the case of “OCUM-1 (stomach, adherent, top dose 4 µM)”, the AUC was 0.705 and the half-maximal inhibitory concentration (IC50) came out at 1020 nM.
For “OE19 (oesophagus, adherent, top dose 4 µM)”, the AUC turned out to be 0.927 and the concentration for half-maximal inhibition (IC50) is above 4000 nM.
For “OE21 (oesophagus, adherent, top dose 4 µM)” the same measures were 0.718 and 1330 nM.
Take “OE33 (oesophagus, adherent, top dose 4 µM)”: the AUC was found to be 0.948 and the 50% inhibitory concentration (IC50) is above 4000 nM.
For OMC-1 (cervix, adherent, top dose 4 µM), the AUC came to 0.768 and the IC50 is 1570 nM.
As to “ONS-76 (medulloblastoma, adherent, top dose 4 µM)”, the AUC was found to be 0.852 and the half-inhibitory concentration (IC50) was found to be 3480 nM.
For “OPM-2 (myeloma, suspension, top dose 4 µM)”, the AUC was 0.931 and the half-maximal inhibitory concentration (IC50) was above 4000 nM.
For “OS-RC-2 (kidney, adherent, top dose 4 µM)” the same measures were 0.721 and 1430 nM.
Consider “OSC-19 (head and neck, adherent, top dose 4 µM)”, for which the AUC was 0.887 and the half-inhibitory concentration (IC50) was above 4000 nM.
On to “OSC-20 (head and neck, adherent, top dose 2 µM)”, for which the AUC came out at 0.957 and the concentration for half-maximal inhibition (IC50) is above 2000 nM.
Take OV-7 (ovary, adherent, top dose 4 µM): the AUC is 0.826 and the IC50 was above 4000 nM.
For the cell line OV-17R (ovary, adherent, top dose 4 µM), the AUC was 0.713 and the IC50 was found to be 1290 nM.
For the cell line OV-56 (ovary, adherent, top dose 4 µM), the AUC was determined as 0.933 and the IC50 was above 4000 nM.
As to OV-90 (ovary, adherent, top dose 4 µM), the AUC is 0.731 and the IC50 worked out at 1400 nM.
For “OVCA420 (ovary, adherent, top dose 4 µM)” the same measures were 0.892 and above 4000 nM.
For “OVCA433 (ovary, adherent, top dose 4 µM)”, the AUC turned out to be 0.825 and the IC50 was 2770 nM.
Regarding “OVCAR-3 (ovary, adherent, top dose 4 µM)”, the AUC was determined as 0.77 and the concentration for half-maximal inhibition (IC50) was found to be 1670 nM.
In the case of “OVCAR-4 (ovary, adherent, top dose 4 µM)”, the AUC amounted to 0.904 and the concentration for half-maximal inhibition (IC50) was above 4000 nM.
Consider “OVCAR-5 (ovary, adherent, top dose 4 µM)”, for which the AUC worked out at 0.83 and the 50% inhibitory concentration (IC50) came out at 3230 nM.
Turning to “OVCAR-8 (ovary, adherent, top dose 4 µM)”, the AUC is 0.983 and the IC50 is above 4000 nM.
In the case of OVISE (ovary, adherent, top dose 4 µM), the AUC was found to be 0.638 and the concentration for half-maximal inhibition (IC50) was determined as 683 nM.
For OVK-18 (ovary, adherent, top dose 4 µM) the same measures were 0.542 and 329 nM.
For OVKATE (ovary, adherent, top dose 4 µM) the same measures were 0.91 and above 4000 nM.
For OVMIU (ovary, adherent, top dose 4 µM) the same measures were 0.875 and above 4000 nM.
Consider OVTOKO (ovary, adherent, top dose 4 µM), for which the AUC is 0.595 and the IC50 is 490 nM.
As to “P12-ICHIKAWA (T-cell lymphoblastic leukaemia, suspension, top dose 4 µM)”, the AUC is 0.874 and the IC50 was found to be 2460 nM.
Turning to “P30-OHK (lymphoblastic leukaemia, suspension, top dose 4 µM)”, the AUC came out at 0.781 and the IC50 was 1380 nM.
For “P31-FUJ (acute myeloid leukaemia, suspension, top dose 4 µM)”, the AUC was 0.886 and the half-maximal inhibitory concentration (IC50) was 2620 nM.
For “P32-ISH (Burkitt lymphoma, suspension, top dose 4 µM)” the same measures were 0.835 and 1760 nM.
For the cell line PA-1 (ovary, adherent, top dose 4 µM), the AUC was 0.915 and the half-maximal inhibitory concentration (IC50) turned out to be 3620 nM.
For “PA-TU-8902 (pancreas, adherent, top dose 4 µM)” the same measures were 0.919 and above 4000 nM.
With “PANC-02-03 (pancreas, adherent, top dose 4 µM)”, the AUC amounted to 0.799 and the half-maximal inhibitory concentration (IC50) came out at 2360 nM.
As to “PANC-03-27 (pancreas, adherent, top dose 4 µM)”, the AUC turned out to be 0.948 and the half-maximal inhibitory concentration (IC50) was above 4000 nM.
As for “PANC-04-03 (pancreas, adherent, top dose 4 µM)”, the AUC is 0.844 and the IC50 was above 4000 nM.
Turning to “PANC-10-05 (pancreas, adherent, top dose 2 µM)”, the AUC was 0.953 and the half-maximal inhibitory concentration (IC50) is above 2000 nM.
“PC-3 (prostate, adherent, top dose 2 µM)”: the AUC amounted to 0.875 and the IC50 was above 2000 nM.
Take “PC-3 [JPC-3] (lung adenocarcinoma, adherent, top dose 4 µM)”: the AUC is 0.955 and the IC50 was above 4000 nM.
For “PC-14 (lung adenocarcinoma, adherent, top dose 4 µM)” the same measures were 0.952 and above 4000 nM.
On to “PCI-4B (head and neck, adherent, top dose 4 µM)”, for which the AUC is 0.955 and the half-inhibitory concentration (IC50) is above 4000 nM.
Consider “PCI-6A (head and neck, adherent, top dose 4 µM)”, for which the AUC came out at 0.857 and the IC50 amounted to 3160 nM.
For “PCI-15A (head and neck, adherent, top dose 4 µM)” the same measures were 0.676 and 779 nM.
For “PCI-30 (head and neck, adherent, top dose 4 µM)” the same measures were 0.863 and above 4000 nM.
Take “PE/CA-PJ15 (head and neck, adherent, top dose 4 µM)”: the AUC turned out to be 0.913 and the IC50 was above 4000 nM.
Take PEO1 (ovary, adherent, top dose 4 µM): the AUC amounted to 0.819 and the 50% inhibitory concentration (IC50) is 2400 nM.
Take “PF-382 (T-cell lymphoblastic leukaemia, suspension, top dose 4 µM)”: the AUC is 0.864 and the concentration for half-maximal inhibition (IC50) is 2810 nM.
As to “PFSK-1 (medulloblastoma, adherent, top dose 4 µM)”, the AUC came out at 0.725 and the IC50 stood at 1140 nM.
For PL4 (pancreas, adherent, top dose 4 µM) the same measures were 0.925 and above 4000 nM.
For the cell line “PSN1 (pancreas, adherent, top dose 4 µM)”, the AUC came to 0.968 and the concentration for half-maximal inhibition (IC50) was above 4000 nM.
In the case of “PWR-1E (prostate, adherent, top dose 4 µM)”, the AUC came out at 0.938 and the IC50 is above 4000 nM.
Turning to “QGP-1 (pancreas, adherent, top dose 4 µM)”, the AUC is 0.979 and the half-inhibitory concentration (IC50) was above 4000 nM.
For “QIMR-WIL (acute myeloid leukaemia, suspension, top dose 4 µM)” the same measures were 0.946 and above 4000 nM.
On to “RC-K8 (B-cell lymphoma, suspension, top dose 4 µM)”, for which the AUC came to 0.993 and the IC50 was above 4000 nM.
As for “RCC10RGB (kidney, adherent, top dose 4 µM)”, the AUC is 0.928 and the IC50 is above 4000 nM.
“RCC-AB (kidney, adherent, top dose 4 µM)”: the AUC was 0.781 and the IC50 amounted to 2210 nM.
In the case of “RCC-ER (kidney, adherent, top dose 4 µM)”, the AUC was 0.725 and the IC50 stood at 1180 nM.
“RCC-FG2 (kidney, adherent, top dose 4 µM)”: the AUC was found to be 0.536 and the 50% inhibitory concentration (IC50) stood at 321 nM.
In the case of “RCC-JF (kidney, adherent, top dose 4 µM)”, the AUC came out at 0.699 and the concentration for half-maximal inhibition (IC50) was 980 nM.
“RCC-JW (kidney, adherent, top dose 4 µM)”: the AUC came to 0.701 and the concentration for half-maximal inhibition (IC50) was determined as 934 nM.
With “RCC-MF (kidney, adherent, top dose 4 µM)”, the AUC came to 0.766 and the half-inhibitory concentration (IC50) turned out to be 1910 nM.
For “RCH-ACV (B-cell leukaemia, suspension, top dose 4 µM)” the same measures were 0.364 and 114 nM.
With “RCM-1 (large intestine, adherent, top dose 4 µM)”, the AUC came out at 0.983 and the half-maximal inhibitory concentration (IC50) was above 4000 nM.
For “REH (B-cell leukaemia, suspension, top dose 4 µM)”, the AUC came to 0.584 and the 50% inhibitory concentration (IC50) was 420 nM.
For “RERF-LC-KJ (lung adenocarcinoma, adherent, top dose 4 µM)” the same measures were 0.876 and above 4000 nM.

(Values after the supplement of paper PMC4967469.)
